In patent US20090241222A1, “TANDEM REAPEAT DNA CONSTRUCTS PRODUCING PROTEINS THAT ATTACK PLANT PATHOGENIC VIRUSES, FUNGI, AND BACTERIA BY DISRUPTING TRANSCRIPTION FACTORS ESSENTIAL FOR REPLICATION THEREOF IN PLANTS” (priority 2008, published 2009):

Tested on: pathogenic fungus present in the test tube water
Experiment: Portulaca resistance to pathogenic fungus induced by picolinic acid (FIG. 31)
Settings: treatment for 10 days, 6 mM PA

Structure (SMILES): O=C(O)c1ccccn1 [picolinic acid, 2-pyridine carboxylic acid]
- fungal toxin disease resistance: fungal toxin disease resistant
